Measured values published in the supplement of paper PMC3724861.
The list shows a part of the results.

test system: T1, Caupolican (Caup) homeodomain DNA-binding domain; assay: PBM E-score (8-mer, recovered from the published 9-mer minima) (E-score (dimensionless, -0.5 to 0.5)); Drosophila protein; higher = stronger relative binding preference, active = 0.31 or more
T1 sequence: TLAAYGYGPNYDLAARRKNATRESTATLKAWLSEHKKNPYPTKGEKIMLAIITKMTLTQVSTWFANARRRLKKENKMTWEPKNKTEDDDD
Method: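 Protein binding microarray (PBM): in vitro transcribed/translated Caupolican (Caup) homeodomain DNA-binding domain (residues 214-303) applied at 100 nM to a universal 8-mer PBM array (Agilent AMADID 015681). The 8-mer enrichment score (E-score, range -0.5 to 0.5) was computed, and each 9-mer score is the minimum E-score of its two constituent 8-mers. The E-score is the same for a 9-mer and its reverse complement; 0.31 is the stated binding threshold.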

Row | Sequence | PBM E-score
1 | GGACTAGA | inactive: -0.104
2 | ACGCGAAT | inactive: 0.047
3 | AATGCGAG | inactive: -0.0192
4 | AGTCGGTG | inactive: -0.0401
5 | GCACCTAA | inactive: 0.0208
6 | CACGATGG | inactive: -0.0392
7 | AGAAGTGG | inactive: -0.0396
8 | TATTAACA | active: 0.312
9 | AACAATCT | inactive: 0.169
10 | TGACATAA | active: 0.311
11 | AAGGTAAA | inactive: 0.121
12 | ACCATTAT | inactive: 0.069
13 | CGCGTCGC | inactive: -0.18
14 | AGTGTCGC | inactive: 0.082
15 | AGTGGGAG | inactive: -0.0484
16 | ATACACCA | inactive: 0.198
17 | ACAACCTG | inactive: 0.275
18 | ATAGATAT | inactive: 0.169
19 | ACGTAAGG | inactive: -0.042
20 | GCCTCGAC | inactive: -0.0572
21 | CTCGTACC | inactive: 0.0909
22 | CCATACTA | inactive: 0.188
23 | AGATCTAG | inactive: -0.0346
24 | AGCATACT | inactive: 0.073

Row | Sequence | PBM E-score
25 | ATTTGATA | inactive: 0.138
26 | TCTGCAGA | inactive: -0.0364
27 | TCTACGAA | inactive: 0.00894
28 | GTATTTAA | inactive: 0.204
29 | CGACTAAG | inactive: -0.0807
30 | GGCACACC | inactive: -0.187
31 | ATTTTCCC | inactive: -0.00887
32 | GAAAAGAA | inactive: 0.0391
33 | AAGCATGC | inactive: 0.122
34 | AGCTGTGC | inactive: -0.0738
35 | CAGGATGC | inactive: -0.0627
36 | CGGTAGCA | inactive: 0.00728
37 | ACGCGGCA | inactive: -0.142
38 | AGGGCCGA | inactive: -0.181
39 | CTGCTTTC | inactive: -0.0276
40 | ATGGACAC | inactive: 0.166
41 | AAGTAAAT | inactive: 0.161
42 | AGCAAGAG | inactive: -0.0284
43 | ACGCCGGC | inactive: -0.215
44 | GCATATGC | inactive: -0.0493
45 | AGGTAGCG | inactive: -0.101
46 | TACACATA | active: 0.343
47 | AGGGCTGA | inactive: -0.0874
48 | ACTGAACA | inactive: 0.23

Row | Sequence | PBM E-score
49 | GAGGATAA | inactive: -0.0673
50 | CCCGAACA | inactive: 0.079
51 | GGTTGCAA | inactive: 0.00792
52 | AGAATGTA | inactive: 0.247
53 | ACGCCGCG | inactive: -0.138
54 | AACTGCTT | inactive: -0.079
55 | CGGAAATA | inactive: 0.0958
56 | ATTGGTTA | inactive: 0.109
57 | AATAGCCC | inactive: -0.131
58 | ACGATCAC | inactive: 0.0466
59 | ATGCTGGC | inactive: -0.0467
60 | AAGTACCT | inactive: 0.124
61 | CGAAATTC | inactive: -0.117
62 | CGTCCCGA | inactive: -0.117
63 | CAGAACGG | inactive: -0.04
64 | ACACGTAT | inactive: 0.291
65 | CCCTAGAA | inactive: -0.0811
66 | CAATTACG | inactive: 0.0582
67 | AATCACAG | inactive: 0.123
68 | CTGAAACC | inactive: -0.0654
69 | GCAAAACC | inactive: -0.167
70 | AAACAAAT | ≥ 0.296
71 | AACCACCC | inactive: -0.0782
72 | ACTGATCC | inactive: 0.062

Row | Sequence | PBM E-score
73 | GACTATAA | inactive: 0.0917
74 | AAAACGGT | inactive: -0.00125
75 | GCCCAGCC | inactive: -0.262
76 | ATTTTGAC | inactive: 0.173
77 | CTACCGAC | inactive: -0.0513
78 | CCTCCACG | inactive: -0.165
79 | ATTTGCGA | ≥ 0.0754
80 | CATCACCA | inactive: 0.0719
81 | CGGGTAGA | inactive: -0.0905
82 | AAGGGGAG | inactive: -0.308
83 | GTTTGACA | inactive: 0.251
84 | TGAAAGAA | ≥ 0.0712
85 | CCCGCCGC | inactive: -0.207
86 | ACCTTTTC | inactive: -0.0418
87 | TCTAAAAA | inactive: -0.0369
88 | CTGCAGTA | inactive: 0.0473
89 | ACGATAGA | inactive: 0.0577
90 | ACGCACGT | ≥ 0.00167
91 | AAAAGAAT | inactive: 0.102
92 | GACGCGAA | inactive: -0.107
93 | AGATCCGG | inactive: -0.11
94 | CCATGTTC | active: 0.368
95 | ATCGCGGA | inactive: -0.111
96 | GTGCGAAC | inactive: -0.133

Row | Sequence | PBM E-score
97 | AGCCTTTA | inactive: -0.0121
98 | CTACAGTC | inactive: -0.0315
99 | ACCACTCC | inactive: -0.0258
100 | AGAAGATG | inactive: -0.029
101 | ACAGGTAT | inactive: 0.203
102 | CGCGTACC | inactive: -0.0687
103 | TACGACAA | inactive: 0.28
104 | CCCCGTGC | inactive: -0.221
105 | CCTTTATA | inactive: 0.0249
106 | ACATAACG | inactive: 0.301
107 | ATTGAAAT | inactive: 0.0885
108 | AGATGGTG | inactive: -0.0838
109 | TTTACAAA | inactive: 0.245
110 | ATTGCAGG | inactive: -0.00827
111 | AACAAGCA | inactive: 0.308
112 | CGGTTGGA | inactive: -0.155
113 | CCGCTTCG | inactive: -0.192
114 | AGTATCAA | inactive: 0.148
115 | TATGTAAA | active: 0.327
116 | ATCATCAG | inactive: 0.0473
117 | CCGGCGCG | inactive: -0.245
118 | ACGGACGC | inactive: -0.0557
119 | GTTGGCCA | inactive: -0.131
120 | GAACGAGA | inactive: 0.0986

Row | Sequence | PBM E-score
121 | ACCGCGCA | ≥ -0.0591
122 | CAACGCGA | inactive: 0.0302
123 | ATTCGGTC | inactive: -0.0344
124 | GAGACAGA | inactive: 0.0588
125 | GGTGGGCA | inactive: -0.0603
126 | CCACTACG | inactive: -0.114
127 | AAACGTCA | inactive: 0.0239
128 | CTGTTATC | inactive: 0.103
129 | ACGCTGGA | inactive: -0.139
130 | CAGGGAGG | inactive: -0.281
131 | CCACGACA | inactive: 0.1
132 | TAGTTGCA | inactive: 0.111
133 | GATATTTA | inactive: 0.099
134 | CGTCAACC | inactive: 0.0167
135 | ACCGTAGC | inactive: -0.0502
136 | GTAATTAC | inactive: 0.274
137 | GTGTCCAA | inactive: 0.253
138 | GCGGGTGA | inactive: -0.223
139 | GTTTTAAA | inactive: 0.0852
140 | CAGAAGCG | inactive: -0.1
141 | CGTGCGGC | inactive: -0.189
142 | GGAGAATA | ≥ 0.117
143 | ACCTCATG | inactive: 0.0552
